Experimental data from publication PMC4336329 (PLoS ONE, 2015).
The whole screen tested about 310,000 compounds, of which about 14,000 (4.5%) showed an effect of 50% or more. Effects have a minus sign here. This is one part of the list.

biological target: human ether-à-go-go-related gene (hERG) potassium channel (human, UniProt Q12809); assay: primary screen, population patch clamp on CHO cells stably expressing hERG
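Further: peak tail current of the secondary pulse compared with the same well before compound.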

human ether-à-go-go-related gene (hERG) potassium channel, sequence (Q12809 whole entry, looked up): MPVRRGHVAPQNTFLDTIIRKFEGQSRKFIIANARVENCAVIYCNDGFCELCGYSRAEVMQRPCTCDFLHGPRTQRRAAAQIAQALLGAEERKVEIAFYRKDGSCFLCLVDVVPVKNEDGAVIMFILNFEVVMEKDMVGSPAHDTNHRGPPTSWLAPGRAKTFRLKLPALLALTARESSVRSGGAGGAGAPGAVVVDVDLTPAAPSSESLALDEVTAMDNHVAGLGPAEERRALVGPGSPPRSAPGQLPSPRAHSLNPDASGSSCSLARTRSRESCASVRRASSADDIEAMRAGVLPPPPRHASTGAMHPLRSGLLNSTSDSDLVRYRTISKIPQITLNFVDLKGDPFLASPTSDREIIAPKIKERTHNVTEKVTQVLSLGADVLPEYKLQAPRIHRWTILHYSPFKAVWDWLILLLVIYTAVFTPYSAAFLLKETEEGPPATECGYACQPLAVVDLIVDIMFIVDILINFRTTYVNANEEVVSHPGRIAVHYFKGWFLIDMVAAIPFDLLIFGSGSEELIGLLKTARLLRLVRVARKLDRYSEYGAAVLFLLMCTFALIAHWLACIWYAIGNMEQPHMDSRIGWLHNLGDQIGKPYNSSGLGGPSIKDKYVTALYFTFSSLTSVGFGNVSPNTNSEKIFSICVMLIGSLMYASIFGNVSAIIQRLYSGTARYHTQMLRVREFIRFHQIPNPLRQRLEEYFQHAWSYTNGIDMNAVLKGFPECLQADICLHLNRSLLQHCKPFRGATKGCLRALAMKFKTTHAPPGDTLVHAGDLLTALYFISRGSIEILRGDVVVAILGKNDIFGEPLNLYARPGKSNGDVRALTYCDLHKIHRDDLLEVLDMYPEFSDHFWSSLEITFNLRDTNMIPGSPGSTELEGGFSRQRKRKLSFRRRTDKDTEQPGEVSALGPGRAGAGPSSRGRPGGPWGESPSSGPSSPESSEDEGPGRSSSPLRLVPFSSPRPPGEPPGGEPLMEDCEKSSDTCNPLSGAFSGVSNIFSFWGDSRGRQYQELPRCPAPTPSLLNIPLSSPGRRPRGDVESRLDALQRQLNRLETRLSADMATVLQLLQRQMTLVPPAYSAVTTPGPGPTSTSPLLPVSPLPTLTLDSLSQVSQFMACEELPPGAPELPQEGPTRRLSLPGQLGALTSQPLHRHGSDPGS

Compound | hERG current change (%, negative = inhibition) at 10uM [%]
CC1(C)Cc2cccc(OCC(=O)NC3CC3)c2O1 | 11.3
CC(=O)OC1c2ccccc2C(=O)N1Cc1ccccc1 (stereo not drawn) | 8.99
CN1C2CCC1CC(OC(=O)c1c[nH]c3ccccc13)C2.Cl (stereo not drawn) | -40.2
CC1=CN2C(=N)/C(=C/c3ccc(Sc4ccc(C)cc4)o3)C(=O)N=C2S1 | 10.1
COc1ccc(-n2c(Cn3nnc4ccccc43)nnc2SCC(=O)O)cc1 | 18.5
O=C(CN1C(=O)CSc2ncccc21)Nc1ccccc1F | 11
CNC(=O)COC(=O)Cc1ccc(Cl)cc1 | -5.86
COc1ccccc1NC(=S)NC(C)C(c1cccs1)N1CCOCC1 (stereo not drawn) | -24.2
CCCOc1ccc(C(=O)C(CN2CCOCC2)c2ccccc2)cc1 (stereo not drawn) | -8.97
CSCCC(NC(=O)c1ccccc1)C(=O)N1CC(C)OC(C)C1 (stereo not drawn) | 15.5
CN1CCN(S(=O)(=O)c2ccc(SCCOc3ccccc3)nc2)CC1 | -30.1
Cc1ccc2[nH]c(=O)c(CN(CC3CCCO3)C(=O)c3cccs3)cc2c1 (stereo not drawn) | 9.62
CCCCN1C(=O)/C(=C\c2ccco2)C(=O)N(CCc2ccccc2)C1=O | 8.1
CCOc1ccccc1N(CC(=O)NC1CCCCC1)C(=O)CNC(=O)c1ccco1 | 8.1
CN(C)Cc1nc2c([nH]1)c(=O)n(C)c(=O)n2C | -0.353
N#CC1=C2SCC(O)(c3ccccc3)N2C(=O)CC1c1cccs1 (stereo not drawn) | -22.7
COc1c2c(nc3occc13)C(CC=C(C)C)(OC)C(OC(C)=O)CC2 (stereo not drawn) | 10.8
COc1ccc(CC(=O)OCC(=O)c2ccc[nH]2)cc1 | -6.48
Cc1cc(C)nc(SCC(=O)OC(C)C(=O)Nc2ccccc2)n1 (stereo not drawn) | 12

Compound | hERG current change (%, negative = inhibition) at 10uM [%]
CCc1nn(CCCC(=O)NCc2ccc(OC(C)C)cc2)c(=O)c2cc3occc3n12 | -54.4
O=C(Nc1ccc(F)c(Cl)c1)Nn1cnnc1 | 12.5
CC1CCN(C(=O)Cn2cnc3c2c(=O)n(C)c(=O)n3C)c2ccccc2S1 (stereo not drawn) | -15
O=C(COc1ccc2ccccc2c1)NNC(=O)c1cnccn1 | -7.99
CSc1nc(Cc2ccccc2)nc2ccccc12 | 22.9
Cn1c(NCCO)nc2c(c1=O)C1(CCCCC1)Cc1ccccc1-2 | 5.44
CNC(=O)c1c(I)c(C(=O)NCC(=O)Nc2c(I)c(C(=O)O)c(I)c(C(=O)NCCO)c2I)c(I)c(N(C)C(C)=O)c1I | 6.45
c1ccc2cc(-c3cc4ccccn4c3)ccc2c1 | 2.65
Clc1ccc(-n2ncc3c(NCCN4CCOCC4)ncnc32)cc1 | -34.7
CN1C2C=C3C(C#N)=C(N)C(C#N)(C#N)[C@H](c4c(F)cccc4F)[C@H]3C1CC2 (stereo partly drawn) | -6.37
Cc1nc(C)c2c(=O)cc(-c3ccccc3)[nH]c2n1 | -27.3
O=C(CN(c1ccccc1)S(=O)(=O)c1ccccc1[N+](=O)[O-])Nc1ccccc1C(=O)N1CCOCC1 | 3.76
O=C(NN1C(=O)c2ccccc2NC1c1ccoc1)c1ccccc1 (stereo not drawn) | -0.43
CCCOc1ccc(/C=N\NC(=O)CCc2n[nH]c(=O)[nH]c2=O)cc1OC | 2.51
COc1cc(C(=O)NCCNC(=O)C2CCCNC2=O)cc(OC)c1OC (stereo not drawn) | -1.92
Cc1ccc(Cn2c(=O)c3c(nc4n3CCCN4Cc3ccccc3)n(C)c2=O)cc1 | 9.88
O=S1(=O)CCC(NC(=S)SCCOc2ccccc2)C1 (stereo not drawn) | -13.9
O=C(NC(=S)Nc1ccc(N2CCCCC2)cc1)c1ccc2c(c1)OCCO2 | 1.25
O=C(O)CS(=O)CC(=O)NCc1cccc(C(F)(F)F)c1 (stereo not drawn) | 16

Compound | hERG current change (%, negative = inhibition) at 10uM [%]
Cn1nc(-c2ccc(C(=O)NCC3CCCO3)cc2)c2ccccc2c1=O (stereo not drawn) | -2.17
O=C(Cn1cnc2ccccc2c1=O)Nc1ccc2c(c1)OCCO2 | -16
COc1ccccc1N1CCN(C(=O)c2n[nH]c3ccccc23)CC1 | 21.9
Cc1cc(NC(=O)c2ccc(Cl)cc2)n(CCOC(=O)c2ccc(Cl)cc2)n1 | -3.84
CCC1Sc2ccc(S(=O)(=O)CCC(=O)NCc3ccc(C)o3)cc2NC1=O (stereo not drawn) | 9.8
COc1ccc(CCNC(=O)c2cnn3cccnc23)cc1OC | 8.36
CC(=O)NS(=O)(=O)c1ccc(NC(=O)c2ccc(Br)o2)cc1 | 12.3
CCCCn1nc(C(=O)Nc2ccc(S(=O)(=O)Nc3ncccn3)cc2)c2ccccc2c1=O | -0.506
O=C(NC1CCCC1)C1CCN(C(=O)c2ccc(Cl)cc2)CC1 | 20.2
Cl.c1ccc(-c2ccccc2OCCOCCN2CCc3ccccc3C2)cc1 | -28.7
COc1ccc(CCN2C(=O)CCC2(C)C(=O)NC2CCCC2)cc1OC (stereo not drawn) | 7.89
CCOc1ccc(S(=O)(=O)Nc2cccc(C(=O)NCCCN3CCOCC3)c2)cc1 | -19.5
COc1cccc(CN2CCN(S(=O)(=O)c3ccc(Br)cc3)CC2)c1 | -29.4
O=C(O)C1CC1C(=O)Nc1cc(F)ccc1F (stereo not drawn) | 7.9
O=C(NCc1cc2ccccc2[nH]1)c1ccccc1F | 17.3
Cc1nc2ccccn2c1C(=O)N/N=C/c1ccc([N+](=O)[O-])cc1 | 2.88
Cc1ccc(Cl)cc1NC(=O)C1C2CCC(O2)C1C(=O)O (stereo not drawn) | 23.5
O=S(=O)(Nc1ncnc2sc3c(c12)CCC3)c1cc(F)ccc1F | -25
Cc1nc(SCc2c(Cl)cccc2Cl)nc(OC(=O)N(C)C)c1C | -4.32
